Results: patent publication US20110092681A1

How the values were obtained:
collagen [1] = test: collagen binding activity per mg VWF antigen; method not described
collagen [2] = test: collagen binding activity of the rVWF preparation; method not described

Specific collagen binding activity (U/mg) (collagen [1]): 88.4 U/mg and 97.9 U/mg and 70.5 U/mg
Collagen binding (U/ml) (collagen [2]): 63.2 U/ml and 107 U/ml and 142 U/ml
Substance: human recombinant VWF (rVWF) (a stretch of the chain, sequence left out)

Where “and” joins values, the source holds several entries; their conditions need not be identical. Identical values can stand only once.
